From the supplement of paper PMC4967469

Tests used:
Assay in all cases: Viability of human cancer cell lines after 72 h of drug (GDSC screen)
Docetaxel = compound: CC(=O)O[C@@]12CO[C@@H]1C[C@H](O)[C@@]1(C)C(=O)[C@H](O)C3=C(C)[C@@H](OC(=O)[C@H](O)[C@@H](NC(=O)OC(C)(C)C)c4ccccc4)C[C@@](O)([C@@H](OC(=O)c4ccccc4)[C@H]21)C3(C)C [Docetaxel]; conditions: top dose 0.0125 µM
Method: (§1)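 Human cancer cell lines in 384-well plates, medium with 10% serum, drug for 72 h over a 256-fold dose range (nine 2-fold or five 4-fold steps up to the top dose). Adherent lines were fixed and stained with the nucleic acid dye Syto60, suspension lines read with resazurin; signal relative to control wells, capped at 0 and 100%. One two-parameter sigmoid per drug and line, fitted in a mixed model over all curves with the slope shared within a line.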

AMG-706 = compound: CC1(C)CNc2cc(NC(=O)c3cccnc3NCc3ccncc3)ccc21 [AMG-706]; conditions: top dose 2 µM; top dose inferred
Method: as §1

Cyclopamine = compound: CC1=C2C[C@H]3[C@@H](CC=C4C[C@@H](O)CC[C@@]43C)[C@@H]2CC[C@]12O[C@@H]1C[C@H](C)CN[C@H]1[C@H]2C [Cyclopamine]; conditions: top dose 16 µM; top dose inferred
Method: as §1

JNK Inhibitor VIII = compound: CCOc1nc(NC(=O)Cc2cc(OC)ccc2OC)cc(N)c1C#N [JNK Inhibitor VIII]; conditions: top dose 10 µM; top dose inferred
Method: as §1

NSC-207895 = compound: CN1CCN(c2ccc([N+](=O)[O-])c3no[n+]([O-])c23)CC1 [NSC-207895]; conditions: top dose 20 µM; top dose inferred
Method: as §1

FTI-277 = compound: COC(=O)[C@H](CCSC)NC(=O)c1ccc(NC[C@@H](N)CS)cc1-c1ccccc1 [FTI-277]; conditions: top dose 1.024 µM; top dose inferred
Method: as §1

YM155 = compound: COCC[n+]1c2c(n(Cc3cnccn3)c1C)C(=O)c1ccccc1C2=O [YM155]; conditions: top dose 5.12 µM
Method: as §1

OSI-906 = compound: C[C@]1(O)C[C@@H](c2nc(-c3ccc4ccc(-c5ccccc5)nc4c3)c3c(N)nccn32)C1 [OSI-906]; conditions: top dose 2.56 µM; top dose inferred
Method: as §1

SB-715992 = compound: Cc1ccc(C(=O)N(CCCN)[C@@H](c2nc3cc(Cl)ccc3c(=O)n2Cc2ccccc2)C(C)C)cc1 [SB-715992]; conditions: top dose 0.128 µM; top dose inferred
Method: as §1

JQ1 = compound: Cc1sc2c(c1C)C(c1ccc(Cl)cc1)=N[C@@H](CC(=O)OC(C)(C)C)c1nnc(C)n1-2 [JQ1]
Method: as §1

Belinostat = compound: O=C(/C=C/c1cccc(S(=O)(=O)Nc2ccccc2)c1)NO [Belinostat]; conditions: top dose 20 µM; top dose inferred
Method: as §1

CGP-60474 = compound: OCCCNc1cc(-c2ccnc(Nc3cccc(Cl)c3)n2)ccn1 [CGP-60474]; conditions: top dose 0.256 µM; top dose inferred
Method: as §1

JNJ-26854165 = compound: c1ccc2c(CCNc3ccc(Nc4ccncc4)cc3)c[nH]c2c1 [JNJ-26854165]; conditions: top dose 10 µM
Method: as §1

[1] = top dose 1 µM, screen: GDSC drug entry 1218, top dose inferred
[2] = top dose 2.56 µM, screen: GDSC drug entry 163

Cell Line | AUC (Docetaxel) | IC50 (Docetaxel) [µM] | AUC (AMG-706) | IC50 (AMG-706) [µM] | AUC (Cyclopamine) | IC50 (Cyclopamine) [µM] | AUC (JNK Inhibitor VIII) | IC50 (JNK Inhibitor VIII) [µM] | AUC (NSC-207895) | IC50 (NSC-207895) [µM] | AUC (FTI-277) | IC50 (FTI-277) [µM] | AUC (YM155) | IC50 (YM155) [µM] | AUC (OSI-906) | IC50 (OSI-906) [µM] | AUC (SB-715992) | IC50 (SB-715992) [µM] | AUC (JQ1; [1]) | IC50 (JQ1; [1]) [µM] | AUC (JQ1; [2]) | IC50 (JQ1; [2]) [µM] | AUC (Belinostat) | IC50 (Belinostat) [µM] | AUC (CGP-60474) | IC50 (CGP-60474) [µM] | AUC (JNJ-26854165) | IC50 (JNJ-26854165) [µM]
OS-RC-2 (kidney, adherent) | 0.918 | > 0.0125 | 0.932 | > 2 | 0.774 | 9.35 | 0.968 | > 10 | 0.943 | > 20 | 0.961 | > 1.02 | 0.049 | < 0.02 | 0.948 | > 2.56 | 0.937 | > 0.128 | 0.974 | > 1 | 0.678 | 0.635 | 0.548 | 1.79 | 0.653 | 0.0515 | 0.828 | > 10
P31-FUJ (acute myeloid leukaemia, suspension) | 0.982 | > 0.0125 | 0.996 | > 2 | 0.994 | > 16 | 0.993 | > 10 | 0.992 | > 20 | 0.996 | > 1.02 | 0.078 | 0.0221 | 0.996 | > 2.56 | 0.986 | > 0.128 | 0.816 | 0.396 | 0.996 | > 2.56 | 0.484 | 1.14 | 0.981 | > 0.256 | 0.996 | > 10
PF-382 (T-cell lymphoblastic leukaemia, suspension) | 0.978 | > 0.0125 | 0.98 | > 2 | 0.938 | > 16 | 0.981 | > 10 | 0.885 | 17.1 | 0.984 | > 1.02 | 0.029 | < 0.02 | 0.984 | > 2.56 | 0.5 | 0.008 | 0.99 | > 1 | 0.596 | 0.283 | 0.158 | 0.135 | 0.781 | 0.0922 | 0.985 | > 10
PSN1 (pancreas, adherent) | 0.501 | 0.000788 | 0.974 | > 2 | 0.991 | > 16 | 0.959 | > 10 | 0.785 | 7.13 | 0.985 | > 1.02 | 0.016 | < 0.02 | 0.892 | 2.17 | 0.764 | 0.0396 | 0.991 | > 1 | 0.991 | > 2.56 | 0.178 | 0.167 | 0.505 | 0.0165 | 0.935 | > 10
QIMR-WIL (acute myeloid leukaemia, suspension) | 0.862 | 0.0102 | 0.987 | > 2 | 0.964 | > 16 | 0.987 | > 10 | 0.76 | 6.84 | 0.925 | > 1.02 | 0.029 | < 0.02 | 0.986 | > 2.56 | 0.614 | 0.0163 | 0.862 | 0.815 | 0.7 | 0.572 | 0.161 | 0.119 | 0.679 | 0.0498 | 0.885 | > 10
RCC10RGB (kidney, adherent) | 0.971 | > 0.0125 | 0.97 | > 2 | 0.883 | > 16 | 0.969 | > 10 | 0.942 | > 20 | 0.842 | > 1.02 | 0.807 | > 5.12 | 0.774 | 2.31 | 0.972 | > 0.128 | – | – | 0.372 | 0.0507 | 0.916 | > 20 | 0.713 | 0.118 | 0.926 | > 10
RF-48 (stomach, adherent) | 0.973 | > 0.0125 | 0.984 | > 2 | 0.977 | > 16 | 0.985 | > 10 | 0.503 | 1.28 | 0.946 | > 1.02 | 0.036 | < 0.02 | 0.953 | > 2.56 | 0.657 | 0.023 | 0.894 | > 1 | 0.715 | 0.704 | 0.188 | 0.126 | 0.607 | 0.0328 | 0.946 | > 10
RH-1 (rhabdomyosarcoma, adherent) | 0.433 | 0.000528 | 0.989 | > 2 | 0.992 | > 16 | 0.991 | > 10 | 0.691 | 3.87 | 0.992 | > 1.02 | 0.017 | < 0.02 | 0.744 | 0.692 | 0.575 | 0.0123 | 0.991 | > 1 | 0.991 | > 2.56 | 0.157 | 0.143 | 0.87 | 0.175 | 0.833 | 5.02
RKO (large intestine, adherent) | 0.583 | 0.0013 | 0.988 | > 2 | 0.977 | > 16 | 0.976 | > 10 | 0.922 | > 20 | 0.988 | > 1.02 | 0.031 | < 0.02 | 0.981 | > 2.56 | 0.629 | 0.0177 | 0.987 | > 1 | 0.31 | 0.049 | 0.35 | 0.497 | 0.719 | 0.0634 | 0.914 | > 10

IC50 is the fitted dose that halves viability relative to control wells, and lower means more sensitive; where the fit passes the top or lowest dose, that dose stands as a limit. AUC sums up the same curve from the lowest dose to the 256-fold higher top dose; it is 1 without any effect and falls as sensitivity rises. For some of these results: The top dose, if marked as inferred, is not printed in the source and was worked back from the curve model. For some of these results: An entry number marks a drug with two screens in the source, which often give different values.
